Results: the supplement of paper PMC7125110
± gives the standard error. This sample is rich in variants without activity.

B1: glmS ribozyme (parent)
chain: AUAAAAGCGCCAGAACUACAGAAAUGUAGUUGACGAGGAGGAGGUUUAUCGAAUUUUCGGCGGAUGCCUCCAAA

How the values were obtained:
Conditions in all cases: with glucosamine-6-phosphate
glucosamine-6-phosphate [1] = variants of: B1; assay: self-cleavage kobs at 640 uM GlcN6P; higher = faster cleavage; RNA array
How it was run: (§1)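 Glucosamine-6-phosphate (40 μM to 10 mM) in HEPES/KCl/Mg(OAc)2 buffer was flowed over sequenced MiSeq chips, and tiles were imaged over ~14 h. Barcoded ribozyme variants there had been transcribed in situ by E. coli RNA polymerase and were tracked through a hybridised Cy3 probe at 37 °C. One- or two-exponential decay fits to per-tile medians, normalised to baseline and to non-cleaving reference variants, gave kobs. kcat and KM came from weighted Michaelis–Menten fits across concentrations.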

glucosamine-6-phosphate [2] = variants of: B1; assay: self-cleavage kobs at 2500 uM GlcN6P; higher = faster cleavage; RNA array
How it was run: as §1

glucosamine-6-phosphate [3] = variants of: B1; assay: self-cleavage kobs at 10000 uM GlcN6P; higher = faster cleavage; RNA array
How it was run: as §1

glucosamine-6-phosphate [4] = variants of: B1; assay: self-cleavage kobs at 160 uM GlcN6P; higher = faster cleavage; RNA array
How it was run: as §1

Variant	self-cleavage kobs at 640 uM GlcN6P (glucosamine-6-phosphate [1])	self-cleavage kobs at 2500 uM GlcN6P (glucosamine-6-phosphate [2])	self-cleavage kobs at 10000 uM GlcN6P (glucosamine-6-phosphate [3])	self-cleavage kobs at 160 uM GlcN6P (glucosamine-6-phosphate [4])
A15C C16U U45A	0.000911 ± 0.00018 s⁻¹	0.00147 ± 0.00058 s⁻¹	–	–
A14C A33C G40C U56G	< 1e-05 s⁻¹	< 1e-05 s⁻¹	–	–
A15U C34A G63U	< 1e-05 s⁻¹	–	–	–
A14G A36U G51A	< 1e-05 s⁻¹	–	–	–
A14G G38C G44A	< 1e-05 s⁻¹	< 1e-05 s⁻¹	< 1e-05 s⁻¹	–
A14C G59A	< 1e-05 s⁻¹	–	–	< 1e-05 s⁻¹
A14G A33C U55G G63A C68A	< 1e-05 s⁻¹	–	< 1e-05 s⁻¹	–
C16G A48C A53G C70A	< 1e-05 s⁻¹	< 1e-05 s⁻¹	< 1e-05 s⁻¹	–
G13U G37A A53C G60U C67G	< 1e-05 s⁻¹	–	–	< 1e-05 s⁻¹
A14U G62U U69A	< 1e-05 s⁻¹	–	–	–
A14C G32A G40A A52G U65G C70A	< 1e-05 s⁻¹	–	–	–
A15U U46G A53U C67U	6.64e-05 ± 1.4e-05 s⁻¹	–	–	–
A14U A33C C71G	< 1e-05 s⁻¹	–	–	–
A14U U45A C61U C70G	< 1e-05 s⁻¹	–	–	–
A14C C34A A53C G59A A64G	< 1e-05 s⁻¹	–	–	–
C16U A36C A42G	< 1e-05 s⁻¹	< 1e-05 s⁻¹	< 1e-05 s⁻¹	–

Variant	self-cleavage kobs at 640 uM GlcN6P (glucosamine-6-phosphate [1])	self-cleavage kobs at 2500 uM GlcN6P (glucosamine-6-phosphate [2])	self-cleavage kobs at 10000 uM GlcN6P (glucosamine-6-phosphate [3])	self-cleavage kobs at 160 uM GlcN6P (glucosamine-6-phosphate [4])
A14C U57A U69A	4.77e-05 ± 2.2e-05 s⁻¹	–	–	–
C16G G40A	0.000114 ± 2.6e-05 s⁻¹	0.000473 ± 0.00011 s⁻¹	0.00027 ± 5.7e-05 s⁻¹	–
A14U A42C A64C	< 1e-05 s⁻¹	< 1e-05 s⁻¹	< 1e-05 s⁻¹	–
A15G G38U G59C	< 1e-05 s⁻¹	–	–	–
C16A U30C G40U G43C U49C	< 1e-05 s⁻¹	< 1e-05 s⁻¹	–	–
A14C U65C C67U	< 1e-05 s⁻¹	–	–	–
G13U G41C A42U U65C	< 1e-05 s⁻¹	< 1e-05 s⁻¹	–	< 1e-05 s⁻¹
A14C G43A G44A	< 1e-05 s⁻¹	< 1e-05 s⁻¹	< 1e-05 s⁻¹	–
C16A A36C A52U	< 1e-05 s⁻¹	–	–	–
A14G A33G G37A C50G C70G	6.3e-05 ± 2.1e-05 s⁻¹	4.9e-05 ± 1.5e-05 s⁻¹	–	–
A15G A33U U45G G63A U69G	< 1e-05 s⁻¹	–	–	< 1e-05 s⁻¹
G13U G35C A64U	< 1e-05 s⁻¹	< 1e-05 s⁻¹	–	< 1e-05 s⁻¹
A14G G29U U47G C70G	0.000119 ± 3.1e-05 s⁻¹	6.72e-05 ± 1.5e-05 s⁻¹	0.000118 ± 2.8e-05 s⁻¹	–
C16U A42U U45C C68G	< 1e-05 s⁻¹	–	–	–
A14C C16A G43U C68U	< 1e-05 s⁻¹	< 1e-05 s⁻¹	–	–
